Molecules are shown by their SMILES. Values joined by “and” are separate entries in the source; they are usually repeats but may differ in a detail not shown here. Equal values may be shown once. About 800 (1.6%) of roughly 50,000 compounds showed an effect of 50% or more. The list shows a part of the results.

For the experiment, the target named is Bcl-2-like protein 10 (Homo sapiens) (UniProt Q9HD36). The experiment can be described thus: TR3 peptide-Bcl-B binding displacers, biochemical primary FP assay, phenotype converters (AID 1240).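 Also: 0% = Bcl-B with tracer peptide and DMSO and 100% = tracer peptide lacking Bcl-B.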 The following applies: GST-Bcl-B / FITC-TR3 peptide fluorescence polarization; stronger effect = higher value; compound at 3.75 mg/L. In general terms: In fluorescence polarisation assays a small probe gives low polarisation when free and higher when bound to something large.
UniProt Q9HD36, sequence (Q9HD36 whole entry, looked up): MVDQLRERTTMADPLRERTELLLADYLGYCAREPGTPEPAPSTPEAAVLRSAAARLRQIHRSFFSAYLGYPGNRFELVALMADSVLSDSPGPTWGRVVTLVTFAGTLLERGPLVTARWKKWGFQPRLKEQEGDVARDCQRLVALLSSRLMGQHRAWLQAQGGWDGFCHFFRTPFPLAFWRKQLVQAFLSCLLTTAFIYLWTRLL
Consider `COc1ccc(C(=O)Nc2cc(Cl)ccc2Cl)cc1NC(=O)COc1ccc(F)cc1`, for which the displacement was -3.5%. Then `CCC(=O)Oc1ccc2c(C)cc(=O)oc2c1C(=O)c1ccccc1`, with 5.3%.

As to `NNC(=O)C1c2ccccc2Oc2ccccc21`, the displacement is 0%. On to `O=C(O)CC(NC(=O)c1ccco1)c1ccccc1` (stereo not drawn), for which the displacement was -0.2%.

With `CC(=O)C(C)Oc1ccc2ccc(=O)oc2c1` (stereo not drawn), the displacement stood at 11.4%. For `COC(=O)c1c(NC(=O)c2cccc(F)c2)sc2c1CCCCC2`, the displacement is -8.5%. For `CCOC(=O)C1=C(C)NC(C)=C(C(=O)OC)C1c1ccco1` (stereo not drawn), the displacement is -0.1%.

Consider `O=C1CC(NC2CCCCC2)C(=O)N1c1ccccc1` (stereo not drawn), for which the displacement turned out to be 9.4%. Then `COc1cc(N2C(=O)NC(=O)/C(=C\c3cc(Br)c(O)c(OC)c3)C2=O)c(OC)cc1Cl`, with 9.5%; and `N/C(=N\OC(=O)c1ccc(I)cc1)c1ccc(Cl)cc1`, with 2.8%; and `COc1ccc(C2C3=C(CC(C)(C)CC3=O)NC3=C2C(=O)CC(C)(C)C3)cc1Br`, with 11.7%. Regarding `Cc1c(N2C(=O)S/C(=C\c3ccccc3)C2=O)c(=O)n(-c2ccccc2)n1C`, the displacement was 1.7%.

Turning to `COc1cc(CN2CCN(Cc3ccccn3)CC2)cc(OC)c1OC`, the displacement was -5.1%. Take `CC(=O)Nc1ccc(Cl)c(C(N)=O)c1`: the displacement was -7.9%. Then `C=CCN(CC=C)C(=O)c1ccc(OC)cc1`, with -0.4%; and `Cc1cccc(C(C)C)c1NC(=O)C1COc2ccccc2O1` (stereo not drawn), with -8.3%. Then `O=C1CSC2(N1)C1CC3CC(C1)CC2C3` (stereo not drawn), with -1.5%.

For the compound `COc1cc(C(=O)c2ccccc2)c(OC)cc1C(=O)NC1CC(C)(C)NC(C)(C)C1`, the displacement is -11.2%.

Turning to `CCc1ccc(NC(=O)/C(C#N)=C\c2ccc(I)o2)cc1`, the displacement was -8.1%. On to `CCOC(=O)c1c(-c2ccc(Cl)cc2)csc1NC(=O)c1ccccc1OC`, for which the displacement stood at 10.2%. Then `COc1cc(Br)cc(/C=C2\C(=O)NC(=O)N(c3ccc(Cl)cc3)C2=O)c1OC`, with -12.5%. As for `COc1cc(/C=C2\C(=O)N(c3ccc(S(N)(=O)=O)cc3)N=C2C)cc(Cl)c1OC(C)C`, the displacement came out at 0.6%.

As to `O=C(COc1ccc(Cl)cc1Br)NNC(=O)c1cccc(Br)c1`, the displacement was -6%.

With `COc1ccc(CNCc2ccccc2)cc1`, the displacement is -1.2% and 9.2%. Then `COc1ccc(CN2CCN(Cc3cccc([N+](=O)[O-])c3)CC2)cc1Br`, with -9.2%.

On to `O=C1CC(N2CCN(Cc3ccc4c(c3)OCO4)CC2)C(=O)N1c1cc(Cl)cc(Cl)c1` (stereo not drawn), for which the displacement came out at 2.4%. Then `CCOC(=O)c1cc2c(nc1N)COC(C)(C)C2`, with -6%; and `O=C(O)c1cccc2c1NC(c1ccc(Cl)cc1)C1CC=CC21` (stereo not drawn), with 148%; and `Cc1ccc(N2C(=O)CC(Cc3ccc(Cl)cc3)C2=O)cc1` (stereo not drawn), with 10.3%.

Regarding `Cc1ccc(C(=O)CSc2ncn[nH]2)cc1`, the displacement stood at 13.3%. `COc1ccc(OC)c(C2=C/C(=C/c3ccccc3[N+](=O)[O-])C(=O)O2)c1`: the displacement was determined as 3.3%. As for `Cc1cc(NC(=O)c2ccc3c(c2)C(=O)N(C(C)(C)C)C3=O)no1`, the displacement came to 5.1%. Then `COc1ccc(OC)c(/C=N/NC(=O)c2c[nH]c3ccccc23)c1`, with 4.5%. With `O=C(C1CCCC1)N1CCN(c2ccc([N+](=O)[O-])cc2)CC1` the figure was -0.8%. As to `Cc1ccc(N(CC(=O)Nc2cccc3cccnc23)S(=O)(=O)c2ccc(C)cc2)cc1`, the displacement is -6.1%. With `CSc1ccc(CN2CCN(C(=O)c3ccccc3F)CC2)cc1` the figure was -8.1%; with `COC(=O)C(Cc1ccc(O)cc1)N=Cc1ccccc1O` (stereo not drawn), 3.2%. With `C/C(CC(=O)NC12CC3CC(CC(C3)C1)C2)=N\NC(=O)c1ccccc1Cl` the figure was -4.2%.

Consider `Cc1cc(Nc2cc(Cl)cc(Cl)c2)n2ncnc2n1`, for which the displacement was 17.6%. With `COc1ccc(C(=O)Nc2ccc([N+](=O)[O-])cc2Cl)cc1OC` the figure was 9.1%.

Take `O=C1NC(=O)C(=Cc2ccccc2OS(=O)(=O)c2ccc([N+](=O)[O-])cc2)C(=O)N1`: the displacement worked out at 5.9%. In the case of `Cc1ccc(S(=O)(=O)/N=C(\N)Nc2nc3ccccc3o2)cc1`, the displacement was -7.3%. As to `NS(=O)(=O)c1ccc(NC(=O)c2ccc(Oc3ccccc3)cc2)cc1`, the displacement stood at 13.4%. Turning to `C=CCc1cccc(/C=N/c2nc3ccccc3n2CCC)c1O`, the displacement came to 1.4%. Turning to `COc1cccc(C2C(C(=O)Nc3ccccc3)=C(C)N=c3s/c(=C\c4ccc(N(C)C)o4)c(=O)n32)c1` (stereo not drawn), the displacement turned out to be 4.3%.

Consider `O=C(O)CCCN1C(=O)C(=O)/C(=C(\O)c2ccc(Cl)cc2)C1c1ccc(F)cc1` (stereo not drawn), for which the displacement was -0.6%. For the compound `N/C(Cc1ccc([N+](=O)[O-])cc1)=N\OC(=O)c1cccc(Br)c1`, the displacement is 1.6%. Turning to `O=C(/C=C/c1ccc(F)cc1)Nc1ccc(N2CCOCC2)cc1`, the displacement turned out to be 5.3%. Then `O=C(CC1Sc2ccccc2NC1=O)Nc1ccc(O)cc1` (stereo not drawn), with 3.8%; and `O=C(/C=C/c1ccccc1)Oc1ccc(C(=S)N2CCOCC2)cc1`, with 14.1%. For `Cc1ccc(C)c(-c2nn(-c3cc(N4CCCC4)ccc3[N+](=O)[O-])c(=O)c3ccccc23)c1`, the displacement is 12.9%. For the compound `CCOC(=O)N1CCN(C(=O)Nc2cccc3ccccc23)CC1`, the displacement was -4.2%. `CCOC(=O)c1sc(NC(=O)/C=C/c2cccs2)c(C(=O)OCC)c1C`: the displacement is -8.1%. For `CC1(C)CC(=O)C2=C(C1)Nc1ccccc1NC2c1coc2ccc(Cl)cc2c1=O` (stereo not drawn), the displacement is -11.9%. As for `Oc1ccc(/C=N/Nc2ccc(C(F)(F)F)cn2)c(O)c1`, the displacement is -14.9%. Take `COc1cc(/C=N/N2C(=O)c3ccccc3C2=O)ccc1OCc1ccc(F)cc1`: the displacement worked out at 2.1%. Then `O=C(Nc1nccs1)c1ccc2c(c1)OCO2`, with 32.1%; and `COc1ccc(OC(C)C(=O)Nc2ncn[nH]2)cc1` (stereo not drawn), with -4.4%; and `COc1cccc(NC2=NC3(CCCC3)N=C(N)N2)c1`, with -1.6%.

As for `Cc1cc(C)n(-c2cc(N/N=C\c3ccc(N(C)C)cc3)nc(C)n2)n1`, the displacement was -8.7%. With `O=S(=O)(c1cccc2ccccc12)n1cnc2ccccc21` the figure was 6.3%; with `O=C1NC(=O)/C(=C/c2cc(Cl)ccc2O)N1`, 8%; with `COc1ccc(/C=N\N2CCN(c3ccc(Cl)cc3)CC2)cc1O`, 2.2%.

Consider `Cc1ccc(-c2nc3ccccn3c2NC(=O)c2ccccc2)cc1`, for which the displacement is 9.4%. Take `O=C(O)CCCCCN1C(=O)C(=O)/C(=C(/O)c2ccc(Cl)cc2)C1c1ccc2c(c1)OCO2` (stereo not drawn): the displacement was -1.5%. As for `COc1ccc(NC(=O)CC(C)Cc2ccc(Cl)cc2)cc1` (stereo not drawn), the displacement came to 0.5%. Then `COc1ccc(C2C(C(=O)OCCOc3ccccc3)=C(C)NC3=C2C(=O)CC(C)(C)C3)c(OC)c1` (stereo not drawn), with -4.5%; and `O=C(c1ccncc1)N1N=C(c2cccc([N+](=O)[O-])c2)CC1(O)C(F)(F)F` (stereo not drawn), with -4.8%.

Take `CN(C)c1ccc(/C=C(\NC(=O)c2ccccc2)C(=O)NCc2ccncc2)cc1`: the displacement stood at 5.3%.

With `CS(=O)(=O)N(Cc1ccc(C(=O)NCc2ccc(Cl)cc2)cc1)c1ccccc1`, the displacement amounted to 0.2%.

For `N/C(=N\OC(=O)Cc1ccc(Cl)cc1)c1ccccn1`, the displacement stood at 2.5%. Take `O=C1NC(=O)N(c2ccccc2)C(=O)/C1=C/c1ccc(N2CCCC2)cc1`: the displacement is -30.2%. With `CCOC(=O)c1c(NC(=S)NC(=O)c2ccc(OC)cc2)sc2c1CCC(C)C2` (stereo not drawn) the figure was 8%. With `Cc1ccc(SCCNS(=O)(=O)c2ccc(C)cc2)cc1`, the displacement is -1.8%. With `O=C(CSc1nc2ccccc2c(=O)n1Cc1ccccc1)c1ccc(Cl)cc1` the figure was -9.1%; with `Cc1cc(C)n(S(=O)(=O)c2ccc(F)cc2)n1`, 6.7%. With `Cc1cccc(/C=C2\C(=O)NC(=O)N(c3ccc(Br)c(C)c3)C2=O)c1` the figure was -9.1%. With `O=[N+]([O-])c1ccc(N2CCOCC2)c(-c2nn[nH]n2)c1` the figure was -10.8%; with `O=C(Nc1cccc(F)c1)c1ccc(Br)c(S(=O)(=O)N2CCCCC2)c1`, -3%. Take `COc1ccc(NC(=O)C(=O)N/N=C/c2ccccc2O)cc1`: the displacement amounted to 10.4%. With `Cc1ccc(-c2nc3ncccc3o2)cc1NC(=O)c1cccc([N+](=O)[O-])c1` the figure was -4.7%; with `COc1ccc2oc(=O)c(-c3csc(/N=C/c4ccccc4O)n3)cc2c1`, -16%; with `COc1cc(/C=C2\SC(=S)N(Cc3ccco3)C2=O)ccc1O`, 19%. Turning to `COc1cccc(/C=N\N2CCN(c3ccc(C)cc3)CC2)c1O`, the displacement came to 0.4%.

As for `COc1cc([N+](=O)[O-])cc(/C=N/NC2=NS(=O)(=O)c3ccccc32)c1O`, the displacement was -2.8%. For `Cc1ccccc1C(=O)c1coc2ccccc2c1=O`, the displacement worked out at 1.8%. With `CCC(=O)c1ccc(N2CCN(C(=O)c3cccs3)CC2)c(F)c1` the figure was -4.8%; with `NC(=O)c1cccc(N=Cc2ccc[nH]2)c1`, -1.6%.

For the compound `Cc1ccc(C(=O)Nc2nc(-c3ccc(F)cc3)cs2)o1`, the displacement is -2.9%. Take `CCN(CC)CCCNC(=O)c1nn2c(C(F)(F)F)cc(-c3ccco3)nc2c1Cl`: the displacement was found to be 1.8%. Then `O=[N+]([O-])c1ccc2nc3c4ccccc4n(CCCN4CCOCC4)c3cc2c1`, with 40.9%; and `CC(Oc1ccccc1)C(=O)NC(c1ccccc1)c1ccccc1` (stereo not drawn), with 3.8%. With `CCOc1ccc(N(CC(=O)Nc2ccccc2C(=O)OC)S(=O)(=O)c2ccc(SC)cc2)cc1` the figure was 14.7%.

`Cc1cc(NC(=O)c2ccccc2I)ccc1NC(=O)c1ccccc1`: the displacement was -0.6%. For `Cc1cc(Nc2ccc([N+](=O)[O-])cc2)nc(-c2ccccc2O)n1`, the displacement is -1.4%. Consider `CCOc1ccc(-c2[nH]c3ccc(Cl)c[n+]3c2C)cc1`, for which the displacement was -5.8%. With `CCOc1cccc(C(=O)Nc2cccc(OC)c2)c1` the figure was 12.7%; with `Cc1cccc(N2CCN(C(=O)c3ccc(Cl)cc3Cl)CC2)c1C`, 0.7%; with `Cc1cc(-n2cc(Br)c(=O)[nH]c2=O)nc(-c2ccccc2)n1`, -95.1%. As to `CNc1c([N+](=O)[O-])cnc(N/C=C/C=C/C=C(C#N)C#N)c1C#N`, the displacement was -5.3%. As for `COC(=O)C1=CNC=C(C(=O)OC)C1c1cc(C)ccc1C`, the displacement amounted to 3.5%.

On to `CC1=C(C(=O)Nc2ccc(Br)cc2)C(c2ccccc2)NC(=O)N1C` (stereo not drawn), for which the displacement is 5%.

With `CC(N=CC1=C(O)CNC1=O)c1ccccc1` (stereo not drawn), the displacement came to 5%.

With `COC(=O)c1c(NC(=O)c2cccc([N+](=O)[O-])c2)sc(C)c1C`, the displacement was -8.5%. Consider `COc1cc(C2/C(=C(\O)c3ccccc3)C(=O)C(=O)N2c2ccccn2)ccc1O` (stereo not drawn), for which the displacement was 3.3%. Then `COc1ccc(Cl)cc1N=CC1=C(O)CC(C)(C)CC1=O`, with 3.1%; and `Cc1ccc(/C=C2N=C(/C=C/c3ccccc3)OC/2=O)s1`, with 8.1%; and `O=C(O)CCCN1C(=O)C(=O)/C(=C(/O)c2ccccc2)C1c1cccc([N+](=O)[O-])c1` (stereo not drawn), with -5.1%.

The values above are taken from PubChem BioAssay AID1240 (Sanford-Burnham Center for Chemical Genomics, 2008).
